The campaign covered roughly 39,000 compounds. About 220 (0.56%) showed activity. The list shows a part of the results.
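Note: static incubation at 37 °C against the wild-type strain, values averaged over two biological replicates.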

The test system of this experiment is Escherichia coli K-12 BW25113. Put plainly: relative growth (OD600 normalised to plate interquartile mean) (fraction); higher = less growth inhibition, active = 0.2 or less. As to conditions: 50 µM; LB; incubation time: overnight (16-24 h).
Consider `C[C@H]1CN([C@@H](C)CO)C(=O)c2cccc(NC(=O)c3ccc(-c4nccs4)cc3)c2O[C@@H]1CN(C)S(=O)(=O)c1cn(C)cn1`, for which the relative growth was inactive: 0.986.
For `C[C@@H]1CCCCO[C@H](CN(C)C(=O)Nc2ccc(C(F)(F)F)cc2)[C@@H](C)CN([C@H](C)CO)C(=O)c2cc(NC(=O)CCCCCC(=O)Nc3ccccc3N)ccc2O1` the value was inactive: 1; for `C[C@H](CO)N1C[C@H](C)[C@@H](CN(C)C(=O)Cc2ccncc2)Oc2cc(C#Cc3ccccc3F)ccc2S1(=O)=O`, inactive: 0.999.
For `CN[C@H]1CN(c2ccc3c(=O)c(C(=O)O)cn(-c4nccs4)c3n2)C[C@@H]1OC` the value was active: 0.0372; for `CCOCCCNc1nc2c([nH]1)c(=O)n(C)c(=O)n2C`, inactive: 1.01; for `COc1ccc(NC(=O)Nc2ccc3c(c2)C(=O)N([C@H](C)CO)C[C@H](C)[C@@H](CN(C)S(=O)(=O)c2ccc(Cl)cc2)OCCCC[C@H](C)O3)cc1`, inactive: 1.05.
As for `COc1ccc(S(=O)(=O)N(C)C[C@@H]2OCCCC[C@H](C)Oc3ccc(NC(=O)C4CCCCC4)cc3C(=O)N([C@H](C)CO)C[C@H]2C)cc1`, the relative growth was inactive: 1.03.
Under `COc1ccc(CNC(=O)C[C@@H]2CC[C@@H]3[C@@H](COc4ccc(NC(=O)C5CC5)cc4C(=O)N3C)O2)cc1` stands inactive: 1.
Take `COCC(=O)Nc1ccc2c(c1)[C@@H]1C[C@@H](CC(=O)N3CCOCC3)O[C@@H](CO)[C@@H]1O2`: the relative growth was inactive: 1.01.
For `COc1cccc(-c2cn(CC[C@@H]3CC[C@@H](NC(=O)CN(C)C)[C@H](CO)O3)nn2)c1` the value was inactive: 1; for `C[C@@H]1CN([C@H](C)CO)C(=O)c2cc(NC(=O)Nc3ccc(F)cc3)ccc2O[C@@H](C)CCCCO[C@@H]1CN(C)Cc1ccncc1`, inactive: 0.99; for `COCC(=O)N1C[C@@H](C)[C@H](OC)CN(C)C(=O)c2ccc(NC(=O)Nc3cccc(F)c3)cc2OC[C@@H]1C`, inactive: 0.982.
`CN(C(=O)c1ccc(Cl)c(N2C(=O)CCS2(=O)=O)c1)[C@H]1CCS(=O)(=O)C1`: the relative growth was inactive: 1.02.
For `CCN(CCO)CCCC(C)Nc1ccnc2cc(Cl)ccc12.O=S(=O)(O)O` (configuration not stated) the value was inactive: 1.18; for `C[C@H](CO)N1C[C@H](C)[C@H](CN(C)S(=O)(=O)c2ccc(F)cc2)Oc2cc(C#Cc3ccncc3)ccc2S1(=O)=O`, inactive: 1.03; for `COc1ccc(C(=O)CC(=O)c2ccc(C(C)(C)C)cc2)cc1`, inactive: 1.09.
Under `C[C@@H]1CN([C@H](C)CO)C(=O)c2cc(Br)cnc2O[C@H]1CN(C)S(=O)(=O)c1ccc(F)cc1` stands inactive: 1.03; under `COc1cccc(C#Cc2ccc3c(c2)O[C@@H](CN(C)C(=O)c2ccccn2)[C@@H](C)CN([C@@H](C)CO)S3(=O)=O)c1`, inactive: 1.04.
For `COCC#Cc1cnc2c(c1)C(=O)N([C@@H](C)CO)C[C@@H](C)[C@H](CN(C)S(=O)(=O)c1cccc(OC)c1)O2` the value was inactive: 1.01; for `C[C@@H]1CN([C@@H](C)CO)C(=O)Cc2cc(NC(=O)c3ccncc3)ccc2O[C@H]1CN(C)S(=O)(=O)c1ccccc1`, inactive: 0.98.
Regarding `Cc1noc(C)c1S(=O)(=O)Nc1ccc2c(c1)C(=O)N([C@H](C)CO)C[C@H](C)[C@@H](CN(C)C(=O)Nc1cccc3ccccc13)OCCCC[C@H](C)O2`, the relative growth was inactive: 0.99.
Under `COc1ccc(-c2cn(CCNC(=O)[C@@H](NS(=O)(=O)c3ccc(C)cc3)C(C)C)nn2)cc1OC` stands inactive: 0.999; under `COc1ccc2c3c(n(c2c1)C)[C@H](CO)N(C[C@]13CCN(CC1)S(=O)(=O)C)C(=O)CN(C)C`, inactive: 1.01.
As for `C[C@H](CO)N1C[C@H](C)[C@@H](CN(C)C(=O)Nc2cccc3ccccc23)Oc2ccc(NC(=O)NC3CCCCC3)cc2C1=O`, the relative growth was inactive: 0.946.
For `C[C@@H]1CN([C@H](C)CO)C(=O)Cc2cc(NC(=O)Cc3cn(C)c4ccccc34)ccc2O[C@H]1CN(C)C` the value was inactive: 1.01; for `OCCNC(=S)Nc1ccccc1`, inactive: 0.872.
Under `C[C@H]1CN([C@@H](C)CO)C(=O)Cc2cc(NC(=O)Nc3ccc(C(F)(F)F)cc3)ccc2O[C@@H]1CN(C)C(=O)Nc1cccc2ccccc12` stands inactive: 1.01.
For `Cc1ccc(S(=O)(=O)N(C)C[C@H]2OCCCC[C@H](C)Oc3ccc(NC(=O)c4ccccc4)cc3C(=O)N([C@H](C)CO)C[C@H]2C)cc1` the value was inactive: 0.992; for `O=C(C[C@@H]1CC[C@@H]2[C@H](COC[C@H](O)CN2C(=O)Nc2ccc(Cl)c(Cl)c2)O1)NCc1ccc(Cl)c(Cl)c1`, inactive: 0.97.
For the compound `C[C@H]1CCCCO[C@H](CN(C)C(=O)C2CCCCC2)[C@@H](C)CN([C@@H](C)CO)C(=O)c2cc(NC(=O)C3CCCCC3)ccc2O1`, the relative growth was inactive: 1.
Under `CN(Cc1ccc(/C=C/C(=O)Nc2ccc(-c3cccs3)cc2N)cc1)CC12CC3CC(CC(C3)C1)C2` stands inactive: 1.01; under `Cc1ccc(-c2c[nH]c(=S)[nH]2)cc1`, inactive: 0.955; under `C[C@@H]1CCCCO[C@H](CN(C)Cc2ccc3c(c2)OCO3)[C@@H](C)CN([C@H](C)CO)C(=O)c2cc(NC(=O)Nc3ccc(F)cc3)ccc2O1`, inactive: 0.918.
For the compound `Cc1noc(C)c1S(=O)(=O)N(C)C[C@H]1Oc2ccc(NC(=O)Cn3cnnn3)cc2C(=O)N([C@H](C)CO)C[C@H]1C`, the relative growth was inactive: 1.02.
Under `C[C@@H]1CN([C@H](C)CO)C(=O)c2cc(NC(=O)CCN3CCOCC3)ccc2O[C@@H]1CN(C)CC1CC1` stands inactive: 0.983; under `C[C@H]1CN([C@@H](C)CO)C(=O)Cc2cc(NC(=O)NC3CCCCC3)ccc2O[C@@H]1CN(C)Cc1ccc(Oc2ccccc2)cc1`, inactive: 0.913; under `O=C(C[C@@H]1CC[C@H]2[C@@H](COC[C@@H](O)CN2S(=O)(=O)c2ccccc2)O1)NCCN1CCCCC1`, inactive: 1.
For `C[C@H](CO)N1C[C@H](C)[C@H](CN(C)S(=O)(=O)c2cn(C)cn2)Oc2ccc(NS(=O)(=O)c3cccs3)cc2C1=O` the value was inactive: 1; for `C[C@H]1CN([C@@H](C)CO)C(=O)c2cccc(NS(=O)(=O)c3ccccc3)c2O[C@@H]1CN(C)S(=O)(=O)c1cn(C)cn1`, inactive: 1.
Under `CC(C)=CCC/C(C)=C/CC/C(C)=C/CCC(=O)OC/C=C(\C)CCC=C(C)C` stands inactive: 0.986; under `COc1ccc(C(=O)c2ccccc2)c(O)c1`, inactive: 0.934.
On to `COc1ccccc1C#Cc1ccc2c(c1)O[C@@H](CN(C)Cc1cncnc1)[C@H](C)CN([C@@H](C)CO)S2(=O)=O`, for which the relative growth is inactive: 1.02.
With `C[C@@H]1CN([C@H](C)CO)C(=O)Cc2cc(NS(=O)(=O)c3cn(C)cn3)ccc2O[C@@H]1CN(C)S(=O)(=O)c1cn(C)cn1`, the relative growth is inactive: 0.981.
Under `COc1ccc2c3c(n(c2c1)C)[C@H](CO)N(C[C@]13CCN(CC1)C(=O)CN(C)C)S(=O)(=O)C` stands inactive: 1.03; under `O=C(C[C@H]1CC[C@H]2[C@@H](COC[C@@H](O)CN2S(=O)(=O)c2ccc(F)cc2)O1)NCc1ccncn1`, inactive: 0.986; under `COc1ccccc1C#Cc1cnc2c(c1)C(=O)N([C@@H](C)CO)C[C@H](C)[C@@H](CN(C)C(=O)CC1CC1)O2`, inactive: 1.01.
For `Cc1noc(C)c1NC(=O)N(C)C[C@H]1Oc2ccc(NS(C)(=O)=O)cc2C(=O)N([C@@H](C)CO)C[C@H]1C` the value was inactive: 0.988; for `CSCC[C@H]1NC(=O)NC1=O`, inactive: 0.995.
Under `C[C@H](CO)N1C[C@H](C)[C@H](CN(C)S(=O)(=O)c2ccc(F)cc2)Oc2ccc(NC(=O)CCN3CCOCC3)cc2C1=O` stands inactive: 1.01; under `C[C@H]1CN([C@@H](C)CO)C(=O)Cc2cc(NC(=O)Cc3ccccc3)ccc2O[C@@H]1CN(C)Cc1ccc(Cl)c(Cl)c1`, inactive: 0.986.
Regarding `C[C@@H]1CN([C@H](C)CO)C(=O)c2cccc(NC(=O)C3CCCCC3)c2O[C@@H]1CN(C)C(=O)Nc1cccc2ccccc12`, the relative growth is inactive: 1.02.
In the case of `O=C(C[C@@H]1C=C[C@H](NS(=O)(=O)c2ccc(F)cc2)[C@H](CO)O1)NCc1ccc(Cl)c(Cl)c1`, the relative growth was inactive: 0.983.
Under `C[C@@H]1CCCCO[C@H](CN(C)C(=O)c2ccccc2)[C@@H](C)CN([C@@H](C)CO)C(=O)c2cc(NC(=O)Nc3ccccc3)ccc2O1` stands inactive: 0.992; under `C[C@H](CO)N1C[C@H](C)[C@H](CN(C)C(=O)Nc2ccc3c(c2)OCO3)Oc2c(NC(=O)Nc3ccc(C(F)(F)F)cc3)cccc2C1=O`, inactive: 0.998.
For `C#CCCCCCCCCCCCC(O)CC(O)COC(C)=O` (configuration not stated), the relative growth was inactive: 0.848.
For `CC1(C)C(=O)C=CC2(C)C1C=CC1(C)C2CCC2(C)C(c3ccoc3)OC(=O)C3OC312` (configuration not stated) the value was inactive: 1.16.
As to `COc1ncnc(NS(=O)(=O)c2ccc(N)cc2)c1OC`, the relative growth is inactive: 1.03.
For `C[C@H](CO)N1C[C@H](C)[C@@H](CN(C)C(=O)c2ccncc2)OCCCC[C@H](C)Oc2ccc(NS(=O)(=O)c3ccc(Cl)cc3)cc2C1=O` the value was inactive: 0.999; for `CCCNC(=O)c1cc2c(c(-c3cccc(-c4cccc(F)c4)c3)n1)[C@H](CCO)N([S@@](=O)C(C)(C)C)C2`, inactive: 0.955.
For `C[C@@H]1CCCCO[C@@H](CN(C)C(=O)c2ccccc2)[C@@H](C)CN([C@H](C)CO)C(=O)c2cc(NC(=O)c3ccccc3)ccc2O1` the value was inactive: 0.997; for `CC(C)NC(=O)N(C)C[C@H]1Oc2ccc(NC(=O)C3CCCCC3)cc2C(=O)N([C@H](C)CO)C[C@H]1C`, inactive: 0.998; for `Cc1noc(C)c1S(=O)(=O)Nc1cccc2c1O[C@@H](CN(C)C(=O)Nc1ccc3c(c1)OCO3)[C@@H](C)CN([C@@H](C)CO)C2=O`, inactive: 0.992.

Source of the values: the supplement of paper PMC9446081.
